Results reported in PMC12311180.
Results are given in words; binding and its absence hold for the method and conditions named. For some assays here: In cells and extracts the contact can be indirect. Some binding calls cover weakened binding; strength is not graded here.

Chains of the proteins cited; added tags and fusions are not shown. Lines headed by an entry give the natural chain unless they say otherwise; changes in a name come on top. A line that says so, or that is headed by a name, gives the form on record, which may keep a tag or linker.
UniProt Q2PPJ7: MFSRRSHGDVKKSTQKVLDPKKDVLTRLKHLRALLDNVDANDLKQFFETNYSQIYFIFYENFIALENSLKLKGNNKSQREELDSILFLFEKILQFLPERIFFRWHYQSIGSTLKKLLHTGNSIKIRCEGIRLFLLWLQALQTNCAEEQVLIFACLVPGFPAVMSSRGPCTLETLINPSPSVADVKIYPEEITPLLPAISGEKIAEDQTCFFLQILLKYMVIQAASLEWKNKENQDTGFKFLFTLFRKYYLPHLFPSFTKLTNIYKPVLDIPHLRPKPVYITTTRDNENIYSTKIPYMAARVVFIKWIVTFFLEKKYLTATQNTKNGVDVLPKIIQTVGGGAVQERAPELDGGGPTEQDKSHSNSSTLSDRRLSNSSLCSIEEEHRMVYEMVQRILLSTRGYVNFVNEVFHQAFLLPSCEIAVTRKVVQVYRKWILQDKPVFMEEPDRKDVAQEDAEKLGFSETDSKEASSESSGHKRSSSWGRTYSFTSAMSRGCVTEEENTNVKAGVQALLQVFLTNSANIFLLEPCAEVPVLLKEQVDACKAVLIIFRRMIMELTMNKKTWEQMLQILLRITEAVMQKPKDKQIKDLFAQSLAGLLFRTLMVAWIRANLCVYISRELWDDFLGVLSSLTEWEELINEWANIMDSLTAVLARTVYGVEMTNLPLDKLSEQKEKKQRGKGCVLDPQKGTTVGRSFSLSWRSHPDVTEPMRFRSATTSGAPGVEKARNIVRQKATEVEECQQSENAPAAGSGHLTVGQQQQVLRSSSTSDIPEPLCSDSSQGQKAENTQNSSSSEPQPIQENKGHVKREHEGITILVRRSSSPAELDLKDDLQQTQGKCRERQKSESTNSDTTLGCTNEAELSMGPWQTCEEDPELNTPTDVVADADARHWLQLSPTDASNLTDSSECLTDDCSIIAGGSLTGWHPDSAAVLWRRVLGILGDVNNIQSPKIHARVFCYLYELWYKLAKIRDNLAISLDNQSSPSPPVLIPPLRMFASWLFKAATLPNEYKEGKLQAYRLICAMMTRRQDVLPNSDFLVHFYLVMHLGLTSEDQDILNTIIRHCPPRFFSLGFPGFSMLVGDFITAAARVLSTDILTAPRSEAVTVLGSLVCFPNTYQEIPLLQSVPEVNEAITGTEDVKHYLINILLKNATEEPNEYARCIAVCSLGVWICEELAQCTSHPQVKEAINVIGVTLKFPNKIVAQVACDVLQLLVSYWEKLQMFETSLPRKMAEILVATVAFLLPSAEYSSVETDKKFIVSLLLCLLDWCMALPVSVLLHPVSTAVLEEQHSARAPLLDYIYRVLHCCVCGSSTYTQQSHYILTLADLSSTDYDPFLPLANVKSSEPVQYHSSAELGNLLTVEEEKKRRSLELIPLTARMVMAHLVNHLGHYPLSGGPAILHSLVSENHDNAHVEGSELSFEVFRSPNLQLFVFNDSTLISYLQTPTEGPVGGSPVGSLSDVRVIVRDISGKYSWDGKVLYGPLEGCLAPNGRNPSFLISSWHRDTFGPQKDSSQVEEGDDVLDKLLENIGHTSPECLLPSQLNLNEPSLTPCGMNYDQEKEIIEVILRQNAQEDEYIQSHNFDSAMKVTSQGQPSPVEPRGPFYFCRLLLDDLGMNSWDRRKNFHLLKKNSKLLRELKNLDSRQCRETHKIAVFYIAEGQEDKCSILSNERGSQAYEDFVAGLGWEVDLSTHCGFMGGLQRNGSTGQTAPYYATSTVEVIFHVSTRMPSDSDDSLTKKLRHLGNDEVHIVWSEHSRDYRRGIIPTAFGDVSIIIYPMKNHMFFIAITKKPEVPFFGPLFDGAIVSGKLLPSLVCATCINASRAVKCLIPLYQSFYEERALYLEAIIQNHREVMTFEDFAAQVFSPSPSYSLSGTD
RGα2^Δhug (lacking aa 1498-1593) (Q2PPJ7, form named): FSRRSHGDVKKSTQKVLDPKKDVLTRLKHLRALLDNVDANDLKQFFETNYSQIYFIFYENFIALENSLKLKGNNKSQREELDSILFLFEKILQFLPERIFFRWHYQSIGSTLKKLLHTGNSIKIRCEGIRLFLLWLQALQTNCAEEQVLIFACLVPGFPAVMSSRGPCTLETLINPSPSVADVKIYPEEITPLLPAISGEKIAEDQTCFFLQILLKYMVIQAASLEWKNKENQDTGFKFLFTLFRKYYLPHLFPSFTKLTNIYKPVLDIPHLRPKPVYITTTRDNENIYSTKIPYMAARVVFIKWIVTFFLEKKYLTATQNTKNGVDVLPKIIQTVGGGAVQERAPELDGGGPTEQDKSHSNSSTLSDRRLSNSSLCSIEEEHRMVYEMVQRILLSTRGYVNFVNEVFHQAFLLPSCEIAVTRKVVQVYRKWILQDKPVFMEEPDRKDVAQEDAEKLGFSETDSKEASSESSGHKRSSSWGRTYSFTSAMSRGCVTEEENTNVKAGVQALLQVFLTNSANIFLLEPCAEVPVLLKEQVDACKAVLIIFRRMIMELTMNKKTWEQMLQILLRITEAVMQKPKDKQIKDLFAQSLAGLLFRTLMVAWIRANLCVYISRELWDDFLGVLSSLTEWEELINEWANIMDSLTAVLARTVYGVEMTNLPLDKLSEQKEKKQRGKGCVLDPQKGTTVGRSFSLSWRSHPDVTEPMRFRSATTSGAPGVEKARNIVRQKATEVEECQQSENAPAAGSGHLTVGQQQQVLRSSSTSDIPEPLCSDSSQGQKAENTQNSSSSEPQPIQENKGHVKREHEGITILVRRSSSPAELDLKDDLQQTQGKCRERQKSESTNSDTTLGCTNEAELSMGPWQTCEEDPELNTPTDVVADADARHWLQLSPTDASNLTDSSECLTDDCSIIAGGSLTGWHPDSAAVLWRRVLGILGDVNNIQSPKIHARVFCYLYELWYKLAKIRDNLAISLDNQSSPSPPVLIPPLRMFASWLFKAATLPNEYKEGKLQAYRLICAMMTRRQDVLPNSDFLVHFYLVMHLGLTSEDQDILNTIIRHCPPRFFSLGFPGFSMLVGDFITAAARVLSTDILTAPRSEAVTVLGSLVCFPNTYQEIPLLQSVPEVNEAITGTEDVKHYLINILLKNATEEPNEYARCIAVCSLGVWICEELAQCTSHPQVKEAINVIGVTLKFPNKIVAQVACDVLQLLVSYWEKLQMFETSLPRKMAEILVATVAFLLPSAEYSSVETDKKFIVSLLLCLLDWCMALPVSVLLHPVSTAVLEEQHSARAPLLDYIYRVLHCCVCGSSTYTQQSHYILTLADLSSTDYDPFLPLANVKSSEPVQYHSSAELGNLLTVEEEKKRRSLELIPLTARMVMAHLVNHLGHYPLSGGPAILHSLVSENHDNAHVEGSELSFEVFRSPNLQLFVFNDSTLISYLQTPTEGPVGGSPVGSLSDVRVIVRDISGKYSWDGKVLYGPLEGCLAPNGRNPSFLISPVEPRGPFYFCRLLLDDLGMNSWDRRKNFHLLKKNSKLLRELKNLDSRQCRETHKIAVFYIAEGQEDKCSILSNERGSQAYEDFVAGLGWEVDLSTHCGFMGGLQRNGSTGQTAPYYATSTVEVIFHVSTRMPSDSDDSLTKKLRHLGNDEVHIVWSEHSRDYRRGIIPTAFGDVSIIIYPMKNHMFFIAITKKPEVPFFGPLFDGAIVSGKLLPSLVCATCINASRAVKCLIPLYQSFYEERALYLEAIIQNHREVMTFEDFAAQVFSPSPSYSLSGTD

Experiments:
[1] = target: RalGAPα2 (RGα2), full length, co-expressed in Expi293F and purified by FLAG affinity (UniProt Q2PPJ7); experiment: co-purification (FLAG affinity, SEC); full-length subunits co-expressed in Expi293F; lysis buffer F (50 mM Tris-HCl pH 7.5, 150 mM NaCl, 1 mM MgCl2, 5% glycerol, 1% Triton-X100); M2 anti-FLAG beads, 3xFLAG peptide elution; size exclusion chromatography
[2] = target: RGα2^Δhug (lacking aa 1498-1593) (UniProt Q2PPJ7); experiment: co-IP; transiently transfected HEK293T/HEK293FT cells; CoIP buffer 40 mM HEPES, 120 mM NaCl, 10 mM MgCl2, 0.3% CHAPS, pH 7.4; 3xflag beads 2-4 h; western blot
[3] = target: RGα2 full-length (RGα2^fl), transiently expressed in HEK293 cells for co-immunoprecipitation (UniProt Q2PPJ7); experiment: as above
[4] = target: RalGAPα2 (RGα2), full length, co-expressed in Expi293F and purified by FLAG affinity (UniProt Q2PPJ7); experiment: co-purification (FLAG affinity); RGα2 co-expressed with RGβ fragments in Expi293F; lysis buffer C (50 mM Tris-HCl pH 7.5, 150 mM NaCl, 4 mM MgCl2, 5% glycerol, 0.3% CHAPS); M2 anti-FLAG beads, 3xFLAG peptide elution

B1: RGβ^D4 (V29E, V33Q, V37E, W65R), co-purified with RGα2 (protein, UniProt Q86X10 1-1494)
chain: MYSEWRSLHLVIQNDQGHTSVLHSYPESEGREQANAEVRPLGQVLGTPSVAGSENLLKTDKEVKRTMEVICYGLTLPLDGETVKYCVDVYTDWIMALVLPKDSIPLPVIKEPNQYVQTILKHLQNLFVPRQEQGSSQIRLCLQVLRAIQKLARESSLMARETWEVLLLFLLQINDILLAPPTVQGGIAENLAEKLIGVLFEVWLLACTRCFPTPPYWKTAKEMVANWRHHPAVVEQWSKVICALTSRLLRFTYGPSFPAFKVPDEDASLIPPEMDNECVAQTWFRFLHMLSNPVDLSNPAIISSTPKFQEQFLNVSGMPQELNQYPCLKHLPQIFFRAMRGISCLVDAFLGISRPRSDSAPPTPVNRLSMPQSAAVSTTPPHNRRHRAVTVNKATMKTSTVSTAHASKVQHQTSSTSPLSSPNQTSSEPRPLPAPRRPKVNSILNLFGSWLFDAAFVHCKLHNGINRDSSMTAITTQASMEFRRKGSQMSTDTMVSNPMFDASEFPDNYEAGRAEACGTLCRIFCSKKTGEEILPAYLSRFYMLLIQGLQINDYVCHPVLASVILNSPPLFCCDLKGIDVVVPYFISALETILPDRELSKFKSYVNPTELRRSSINILLSLLPLPHHFGTVKSEVVLEGKFSNDDSSSYDKPITFLSLKLRLVNILIGALQTETDPNNTQMILGAMLNIVQDSALLEAIGCQMEMGGGENNLKSHSRTNSGISSASGGSTEPTTPDSERPAQALLRDYALNTDSAAGLLIRSIHLVTQRLNSQWRQDMSISLAALELLSGLAKVKVMVDSGDRKRAISSVCTYIVYQCSRPAPLHSRDLHSMIVAAFQCLCVWLTEHPDMLDEKDCLKEVLEIVELGISGSKSKNNEQEVKYKGDKEPNPASMRVKDAAEATLTCIMQLLGAFPSPSGPASPCSLVNETTLIKYSRLPTINKHSFRYFVLDNSVILAMLEQPLGNEQNDFFPSVTVLVRGMSGRLAWAQQLCLLPRGAKANQKLFVPEPRPVPKNDVGFKYSVKHRPFPEEVDKIPFVKADLSIPDLHEIVTEELEERHEKLRSGMAQQIAYEIHLEQQSEEELQKRSFPDPVTDCKPPPPAQEFQTARLFLSHFGFLSLEALKEPANSRLPPHLIALDSTIPGFFDDIGYLDLLPCRPFDTVFIFYMKPGQKTNQEILKNVESSRTVQPHFLEFLLSLGWSVDVGRHPGWTGHVSTSWSINCCDDGEGSQQEVISSEDIGASIFNGQKKVLYYADALTEIAFVVPSPVESLTDSLESNISDQDSDSNMDLMPGILKQPSLTLELFPNHTDNLNSSQRLSPSSRMRKLPQGRPVPPLGPETRVSVVWVERYDDIENFPLSELMTEISTGVETTANSSTSLRSTTLEKEVPVIFIHPLNTGLFRIKIQGATGKFNMVIPLVDGMIVSRRALGFLVRQTVINICRRKRLESDSYSPPHVRRKQKITDIVNKYRNKQLEPEFYTSLFQEVGLKNCSS
**Q.** For B1, which binding [1] is on record?
**A.** binds

B2: κB-Ras2 (protein, UniProt Q9NYR9 1-191)
chain: MGKSCKVVVCGQASVGKTSILEQLLYGNHVVGSEMIETQEDIYVGSIETDRGVREQVRFYDTRGLRDGAELPRHCFSCTDGYVLVYSTDSRESFQRVELLKKEIDKSKDKKEVTIVVLGNKCDLQEQRRVDPDVAQHWAKSEKVKLWEVSVADRRSLLEPFVYLASKMTQPQSKSAFPLSRKNKGSGSLDG
**Q.** For B2, which binding [1] is on record?
**A.** binds

B3: RGβ^Δhug (lacking aa 1004-1099) (protein, UniProt Q86X10)
chain: MYSEWRSLHLVIQNDQGHTSVLHSYPESVGREVANAVVRPLGQVLGTPSVAGSENLLKTDKEVKWTMEVICYGLTLPLDGETVKYCVDVYTDWIMALVLPKDSIPLPVIKEPNQYVQTILKHLQNLFVPRQEQGSSQIRLCLQVLRAIQKLARESSLMARETWEVLLLFLLQINDILLAPPTVQGGIAENLAEKLIGVLFEVWLLACTRCFPTPPYWKTAKEMVANWRHHPAVVEQWSKVICALTSRLLRFTYGPSFPAFKVPDEDASLIPPEMDNECVAQTWFRFLHMLSNPVDLSNPAIISSTPKFQEQFLNVSGMPQELNQYPCLKHLPQIFFRAMRGISCLVDAFLGISRPRSDSAPPTPVNRLSMPQSAAVSTTPPHNRRHRAVTVNKATMKTSTVSTAHASKVQHQTSSTSPLSSPNQTSSEPRPLPAPRRPKVNSILNLFGSWLFDAAFVHCKLHNGINRDSSMTAITTQASMEFRRKGSQMSTDTMVSNPMFDASEFPDNYEAGRAEACGTLCRIFCSKKTGEEILPAYLSRFYMLLIQGLQINDYVCHPVLASVILNSPPLFCCDLKGIDVVVPYFISALETILPDRELSKFKSYVNPTELRRSSINILLSLLPLPHHFGTVKSEVVLEGKFSNDDSSSYDKPITFLSLKLRLVNILIGALQTETDPNNTQMILGAMLNIVQDSALLEAIGCQMEMGGGENNLKSHSRTNSGISSASGGSTEPTTPDSERPAQALLRDYALNTDSAAGLLIRSIHLVTQRLNSQWRQDMSISLAALELLSGLAKVKVMVDSGDRKRAISSVCTYIVYQCSRPAPLHSRDLHSMIVAAFQCLCVWLTEHPDMLDEKDCLKEVLEIVELGISGSKSKNNEQEVKYKGDKEPNPASMRVKDAAEATLTCIMQLLGAFPSPSGPASPCSLVNETTLIKYSRLPTINKHSFRYFVLDNSVILAMLEQPLGNEQNDFFPSVTVLVRGMSGRLAWAQQLCLLPRGAKANQKPPAQEFQTARLFLSHFGFLSLEALKEPANSRLPPHLIALDSTIPGFFDDIGYLDLLPCRPFDTVFIFYMKPGQKTNQEILKNVESSRTVQPHFLEFLLSLGWSVDVGRHPGWTGHVSTSWSINCCDDGEGSQQEVISSEDIGASIFNGQKKVLYYADALTEIAFVVPSPVESLTDSLESNISDQDSDSNMDLMPGILKQPSLTLELFPNHTDNLNSSQRLSPSSRMRKLPQGRPVPPLGPETRVSVVWVERYDDIENFPLSELMTEISTGVETTANSSTSLRSTTLEKEVPVIFIHPLNTGLFRIKIQGATGKFNMVIPLVDGMIVSRRALGFLVRQTVINICRRKRLESDSYSPPHVRRKQKITDIVNKYRNKQLEPEFYTSLFQEVGLKNCSS
**Q.** With B3 as the binder, how does the binding [2] read?
**A.** no binding

**Q.** And the binding [3]?
**A.** binds weakly

B4: RGβ^hug (aa 973-1118), transiently expressed in HEK293T cells for co-immunoprecipitation (domain or fragment, UniProt Q86X10 973-1118)
chain: SVTVLVRGMSGRLAWAQQLCLLPRGAKANQKLFVPEPRPVPKNDVGFKYSVKHRPFPEEVDKIPFVKADLSIPDLHEIVTEELEERHEKLRSGMAQQIAYEIHLEQQSEEELQKRSFPDPVTDCKPPPPAQEFQTARLFLSHFGFL
**Q.** B4 was tested. Which binding [3] did it give?
**A.** binds

B5: RGβ^hug (aa 973-1118), co-expressed and co-purified with RGα2 (domain or fragment, UniProt Q86X10 973-1118)
chain: B4 chain
**Q.** B5 was tested. Which binding [4] did it give?
**A.** binds

B6: RGβ^SD-hug-pGAP (aa 881-1495), co-expressed and co-purified with RGα2 (domain or fragment, UniProt Q86X10 881-1494)
chain: KYKGDKEPNPASMRVKDAAEATLTCIMQLLGAFPSPSGPASPCSLVNETTLIKYSRLPTINKHSFRYFVLDNSVILAMLEQPLGNEQNDFFPSVTVLVRGMSGRLAWAQQLCLLPRGAKANQKLFVPEPRPVPKNDVGFKYSVKHRPFPEEVDKIPFVKADLSIPDLHEIVTEELEERHEKLRSGMAQQIAYEIHLEQQSEEELQKRSFPDPVTDCKPPPPAQEFQTARLFLSHFGFLSLEALKEPANSRLPPHLIALDSTIPGFFDDIGYLDLLPCRPFDTVFIFYMKPGQKTNQEILKNVESSRTVQPHFLEFLLSLGWSVDVGRHPGWTGHVSTSWSINCCDDGEGSQQEVISSEDIGASIFNGQKKVLYYADALTEIAFVVPSPVESLTDSLESNISDQDSDSNMDLMPGILKQPSLTLELFPNHTDNLNSSQRLSPSSRMRKLPQGRPVPPLGPETRVSVVWVERYDDIENFPLSELMTEISTGVETTANSSTSLRSTTLEKEVPVIFIHPLNTGLFRIKIQGATGKFNMVIPLVDGMIVSRRALGFLVRQTVINICRRKRLESDSYSPPHVRRKQKITDIVNKYRNKQLEPEFYTSLFQEVGLKNCSS
**Q.** Which binding [4] does the source give for B6 here?
**A.** binds

B7: RGβ^cHEAT-SD-hug-pGAP (aa 576-1494), co-expressed and co-purified with RGα2 (domain or fragment, UniProt Q86X10 576-1494)
chain: KGIDVVVPYFISALETILPDRELSKFKSYVNPTELRRSSINILLSLLPLPHHFGTVKSEVVLEGKFSNDDSSSYDKPITFLSLKLRLVNILIGALQTETDPNNTQMILGAMLNIVQDSALLEAIGCQMEMGGGENNLKSHSRTNSGISSASGGSTEPTTPDSERPAQALLRDYALNTDSAAGLLIRSIHLVTQRLNSQWRQDMSISLAALELLSGLAKVKVMVDSGDRKRAISSVCTYIVYQCSRPAPLHSRDLHSMIVAAFQCLCVWLTEHPDMLDEKDCLKEVLEIVELGISGSKSKNNEQEVKYKGDKEPNPASMRVKDAAEATLTCIMQLLGAFPSPSGPASPCSLVNETTLIKYSRLPTINKHSFRYFVLDNSVILAMLEQPLGNEQNDFFPSVTVLVRGMSGRLAWAQQLCLLPRGAKANQKLFVPEPRPVPKNDVGFKYSVKHRPFPEEVDKIPFVKADLSIPDLHEIVTEELEERHEKLRSGMAQQIAYEIHLEQQSEEELQKRSFPDPVTDCKPPPPAQEFQTARLFLSHFGFLSLEALKEPANSRLPPHLIALDSTIPGFFDDIGYLDLLPCRPFDTVFIFYMKPGQKTNQEILKNVESSRTVQPHFLEFLLSLGWSVDVGRHPGWTGHVSTSWSINCCDDGEGSQQEVISSEDIGASIFNGQKKVLYYADALTEIAFVVPSPVESLTDSLESNISDQDSDSNMDLMPGILKQPSLTLELFPNHTDNLNSSQRLSPSSRMRKLPQGRPVPPLGPETRVSVVWVERYDDIENFPLSELMTEISTGVETTANSSTSLRSTTLEKEVPVIFIHPLNTGLFRIKIQGATGKFNMVIPLVDGMIVSRRALGFLVRQTVINICRRKRLESDSYSPPHVRRKQKITDIVNKYRNKQLEPEFYTSLFQEVGLKNCSS
**Q.** B7 was tested. Which binding [4] did it give?
**A.** binds
